Compound: CN[C@@H]1C[C@H]2O[C@@](C)([C@@H]1OC)n1c3ccccc3c3c4c(c5c6ccccc6n2c5c31)C(=O)NC4 [staurosporine]
Assay: log2 fold change of tryptic peptide abundance, ligand vs vehicle (limited proteolysis) (log2 ratio); higher = more trypsin-susceptible (destabilized)
Settings: ligand concentration: 20 uM; sample: K562 cleared lysate; digestion: 4 min, 22 C (HT-PELSA RT4min, Orbitrap Astral)

UniProt Q9UQM7, sequence (Q9UQM7 whole entry): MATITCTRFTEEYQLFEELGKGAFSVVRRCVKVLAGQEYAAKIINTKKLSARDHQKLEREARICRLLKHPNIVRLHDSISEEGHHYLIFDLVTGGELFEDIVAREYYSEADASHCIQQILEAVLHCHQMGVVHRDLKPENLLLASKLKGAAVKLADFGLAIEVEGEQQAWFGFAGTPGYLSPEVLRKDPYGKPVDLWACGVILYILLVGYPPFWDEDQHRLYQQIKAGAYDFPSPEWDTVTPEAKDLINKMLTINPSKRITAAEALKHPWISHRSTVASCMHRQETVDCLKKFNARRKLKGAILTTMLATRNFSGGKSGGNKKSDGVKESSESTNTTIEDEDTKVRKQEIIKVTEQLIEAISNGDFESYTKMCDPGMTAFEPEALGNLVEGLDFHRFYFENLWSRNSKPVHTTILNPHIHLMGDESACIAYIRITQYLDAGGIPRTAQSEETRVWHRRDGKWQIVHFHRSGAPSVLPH
UniProt P22830, sequence (P22830 whole entry): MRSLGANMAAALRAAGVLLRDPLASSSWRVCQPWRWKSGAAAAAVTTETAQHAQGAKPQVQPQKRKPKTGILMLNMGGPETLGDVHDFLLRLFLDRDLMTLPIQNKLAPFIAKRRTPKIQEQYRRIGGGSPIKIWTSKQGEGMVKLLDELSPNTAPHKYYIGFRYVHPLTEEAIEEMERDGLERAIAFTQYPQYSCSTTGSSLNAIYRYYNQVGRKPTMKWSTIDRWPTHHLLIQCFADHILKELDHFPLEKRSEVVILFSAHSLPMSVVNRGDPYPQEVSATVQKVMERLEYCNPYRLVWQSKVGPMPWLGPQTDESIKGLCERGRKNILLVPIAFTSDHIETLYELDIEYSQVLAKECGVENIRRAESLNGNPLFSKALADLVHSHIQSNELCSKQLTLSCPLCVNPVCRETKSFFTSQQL
UniProt P42680, sequence (P42680 whole entry): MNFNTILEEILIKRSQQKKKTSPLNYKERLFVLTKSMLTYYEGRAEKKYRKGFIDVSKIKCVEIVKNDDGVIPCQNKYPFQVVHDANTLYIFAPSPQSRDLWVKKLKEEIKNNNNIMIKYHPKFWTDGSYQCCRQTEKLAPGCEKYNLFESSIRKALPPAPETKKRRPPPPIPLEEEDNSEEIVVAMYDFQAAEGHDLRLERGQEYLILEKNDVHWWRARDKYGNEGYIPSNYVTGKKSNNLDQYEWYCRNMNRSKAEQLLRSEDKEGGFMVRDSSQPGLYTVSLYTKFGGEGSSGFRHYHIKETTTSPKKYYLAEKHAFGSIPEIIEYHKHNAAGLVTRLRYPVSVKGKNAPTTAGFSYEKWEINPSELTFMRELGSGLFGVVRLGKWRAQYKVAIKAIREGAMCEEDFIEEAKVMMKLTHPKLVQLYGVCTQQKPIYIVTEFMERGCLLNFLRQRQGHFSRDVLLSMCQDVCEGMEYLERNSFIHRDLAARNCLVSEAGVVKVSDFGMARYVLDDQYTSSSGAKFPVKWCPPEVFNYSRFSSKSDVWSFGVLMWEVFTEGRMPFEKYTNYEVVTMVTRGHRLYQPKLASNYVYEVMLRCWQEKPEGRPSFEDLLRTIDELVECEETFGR
UniProt Q9BWU1, sequence (Q9BWU1 whole entry): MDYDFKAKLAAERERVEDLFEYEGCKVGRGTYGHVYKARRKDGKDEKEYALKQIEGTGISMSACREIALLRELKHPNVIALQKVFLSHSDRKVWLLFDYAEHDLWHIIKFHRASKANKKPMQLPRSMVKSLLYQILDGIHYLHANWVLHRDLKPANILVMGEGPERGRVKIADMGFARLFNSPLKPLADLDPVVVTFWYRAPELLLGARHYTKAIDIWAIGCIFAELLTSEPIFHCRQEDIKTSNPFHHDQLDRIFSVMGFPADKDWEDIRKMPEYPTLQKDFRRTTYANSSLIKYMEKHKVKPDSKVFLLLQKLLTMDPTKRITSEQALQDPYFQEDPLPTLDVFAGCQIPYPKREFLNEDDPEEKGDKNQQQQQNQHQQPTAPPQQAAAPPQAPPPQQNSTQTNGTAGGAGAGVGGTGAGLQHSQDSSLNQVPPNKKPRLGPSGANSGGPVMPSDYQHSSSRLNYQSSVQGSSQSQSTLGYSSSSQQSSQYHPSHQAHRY
UniProt O95747, sequence (O95747 whole entry, looked up): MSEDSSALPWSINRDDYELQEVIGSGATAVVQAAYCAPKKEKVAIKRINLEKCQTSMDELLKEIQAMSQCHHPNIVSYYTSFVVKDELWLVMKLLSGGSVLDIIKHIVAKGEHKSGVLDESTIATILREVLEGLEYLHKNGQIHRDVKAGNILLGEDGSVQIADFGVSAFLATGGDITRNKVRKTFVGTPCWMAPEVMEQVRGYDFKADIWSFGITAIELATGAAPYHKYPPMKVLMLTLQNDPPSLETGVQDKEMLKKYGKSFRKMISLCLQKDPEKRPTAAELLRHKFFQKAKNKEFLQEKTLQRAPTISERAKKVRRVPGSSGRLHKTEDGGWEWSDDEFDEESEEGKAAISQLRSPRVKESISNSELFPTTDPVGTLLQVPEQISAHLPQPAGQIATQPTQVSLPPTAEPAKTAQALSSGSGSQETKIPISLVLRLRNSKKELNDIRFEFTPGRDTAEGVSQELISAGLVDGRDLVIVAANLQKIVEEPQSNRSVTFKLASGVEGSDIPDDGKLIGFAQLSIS
UniProt P11309, sequence (P11309 whole entry, looked up): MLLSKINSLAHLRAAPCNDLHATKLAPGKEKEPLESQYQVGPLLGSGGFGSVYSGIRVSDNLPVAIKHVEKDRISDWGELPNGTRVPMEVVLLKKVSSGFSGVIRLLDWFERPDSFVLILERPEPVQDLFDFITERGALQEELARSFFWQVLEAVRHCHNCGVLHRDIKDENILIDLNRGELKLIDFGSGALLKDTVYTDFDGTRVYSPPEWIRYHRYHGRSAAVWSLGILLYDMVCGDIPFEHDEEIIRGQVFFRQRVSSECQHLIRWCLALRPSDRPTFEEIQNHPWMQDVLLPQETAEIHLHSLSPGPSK
UniProt Q9UBF8, sequence (Q9UBF8 whole entry, looked up): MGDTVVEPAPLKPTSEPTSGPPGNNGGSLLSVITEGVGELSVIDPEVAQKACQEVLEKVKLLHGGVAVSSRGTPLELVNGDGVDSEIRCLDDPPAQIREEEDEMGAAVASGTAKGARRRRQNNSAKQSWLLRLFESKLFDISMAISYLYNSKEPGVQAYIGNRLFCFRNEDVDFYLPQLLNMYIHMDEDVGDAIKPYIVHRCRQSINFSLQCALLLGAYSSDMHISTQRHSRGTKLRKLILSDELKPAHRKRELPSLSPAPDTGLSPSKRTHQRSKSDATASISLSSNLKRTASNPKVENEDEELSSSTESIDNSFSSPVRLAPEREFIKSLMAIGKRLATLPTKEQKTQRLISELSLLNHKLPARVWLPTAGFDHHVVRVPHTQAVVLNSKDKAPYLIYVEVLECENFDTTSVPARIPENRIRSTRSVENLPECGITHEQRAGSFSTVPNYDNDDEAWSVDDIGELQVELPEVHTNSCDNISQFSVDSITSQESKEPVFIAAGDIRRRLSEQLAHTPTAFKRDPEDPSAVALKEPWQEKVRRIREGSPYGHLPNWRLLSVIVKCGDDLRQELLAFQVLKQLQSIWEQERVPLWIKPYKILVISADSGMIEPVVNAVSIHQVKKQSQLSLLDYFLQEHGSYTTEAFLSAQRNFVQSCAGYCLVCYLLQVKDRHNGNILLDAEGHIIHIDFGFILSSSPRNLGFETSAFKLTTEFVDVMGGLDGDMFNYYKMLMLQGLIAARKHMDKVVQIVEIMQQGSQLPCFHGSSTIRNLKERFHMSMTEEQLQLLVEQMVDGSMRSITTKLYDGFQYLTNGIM
UniProt P04632, sequence (P04632 whole entry): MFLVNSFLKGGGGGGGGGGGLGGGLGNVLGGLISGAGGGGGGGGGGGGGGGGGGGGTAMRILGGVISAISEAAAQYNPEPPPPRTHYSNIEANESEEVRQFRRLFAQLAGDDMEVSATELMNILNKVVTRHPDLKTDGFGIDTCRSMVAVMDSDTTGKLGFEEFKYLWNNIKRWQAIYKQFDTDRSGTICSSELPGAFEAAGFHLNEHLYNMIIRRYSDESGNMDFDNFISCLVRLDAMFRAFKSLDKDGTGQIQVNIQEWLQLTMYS
UniProt P06576, sequence (P06576 whole entry): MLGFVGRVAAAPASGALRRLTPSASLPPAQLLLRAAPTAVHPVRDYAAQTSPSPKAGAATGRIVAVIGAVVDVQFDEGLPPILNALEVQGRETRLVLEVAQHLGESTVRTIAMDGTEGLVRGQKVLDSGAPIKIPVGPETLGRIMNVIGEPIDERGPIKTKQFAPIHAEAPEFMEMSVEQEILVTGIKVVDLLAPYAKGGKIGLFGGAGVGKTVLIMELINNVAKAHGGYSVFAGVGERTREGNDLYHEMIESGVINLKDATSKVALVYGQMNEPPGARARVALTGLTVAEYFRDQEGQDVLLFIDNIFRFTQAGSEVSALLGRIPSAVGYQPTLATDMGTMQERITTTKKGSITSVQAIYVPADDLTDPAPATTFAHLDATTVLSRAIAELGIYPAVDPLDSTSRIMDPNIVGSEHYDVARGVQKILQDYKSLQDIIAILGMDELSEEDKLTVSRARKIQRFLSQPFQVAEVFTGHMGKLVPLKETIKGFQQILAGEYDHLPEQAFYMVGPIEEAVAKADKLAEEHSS
UniProt O14733, sequence (O14733 whole entry): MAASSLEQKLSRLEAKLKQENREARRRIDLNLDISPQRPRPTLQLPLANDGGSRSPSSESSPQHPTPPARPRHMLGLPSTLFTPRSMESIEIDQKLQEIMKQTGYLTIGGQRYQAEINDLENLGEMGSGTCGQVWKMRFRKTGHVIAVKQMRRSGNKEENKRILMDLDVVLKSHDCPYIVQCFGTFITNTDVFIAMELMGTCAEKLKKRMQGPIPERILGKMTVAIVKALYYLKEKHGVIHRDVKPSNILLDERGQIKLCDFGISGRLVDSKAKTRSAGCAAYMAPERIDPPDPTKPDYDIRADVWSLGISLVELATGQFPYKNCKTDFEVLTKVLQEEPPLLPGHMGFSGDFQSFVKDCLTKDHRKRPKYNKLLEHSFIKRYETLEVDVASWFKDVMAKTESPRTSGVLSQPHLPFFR

Row | Target | log2 fold change
1 | ACACA (peptide sequence: LGTPELSTAERK, peptide start residue: 2151) (UniProt Q13085) | 0.587
2 | CTR9 (peptide sequence: GEEGSDDDETENGPKPK, peptide start residue: 966) (UniProt Q6PD62) | 1.56
3 | UniProt Q5VT25 (peptide sequence: LHREDFEILK, peptide start residue: 72) | -0.952
4 | UniProt Q12768 (peptide sequence: RVAEAHVPNFIFDEFR, peptide start residue: 1141) | 0.42
5 | PRMT7 (peptide sequence: EAEPHPLWEYPCR, peptide start residue: 560) (UniProt Q9NVM4) | 0.759
6 | MIF (peptide sequence: LLCGLLAER, peptide start residue: 79) (UniProt P14174) | -0.364
7 | GPATCH8 (peptide sequence: KALGGDVSDQSLESHSQK, peptide start residue: 484) (UniProt Q9UKJ3) | 1.36
8 | UniProt Q9UBF8 (peptide sequence: VWLPTAGFDHHVVR, peptide start residue: 367) | -0.889
9 | RNASEL (peptide sequence: TFCEGSPR, peptide start residue: 393) (UniProt Q05823) | -0.842
10 | UniProt O14757 (peptide sequence: ILVENPSAR, peptide start residue: 245) | -2.41
11 | UniProt P42679 (peptide sequence: NILVSEDLVAK, peptide start residue: 357) | -1.01
12 | TLK2 (peptide sequence: RKPPAMGQAPPATNEQK, peptide start residue: 345) (UniProt Q86UE8) | -0.319
13 | FECH (peptide sequence: ECGVENIR, peptide start residue: 359) (UniProt P22830) | -1.54
14 | UniProt Q9BWU1 (peptide sequence: DLKPANILVMGEGPER, peptide start residue: 151) | -0.932
15 | UniProt Q9UHA3 (peptide sequence: NEPIKYQR, peptide start residue: 76) | 0.373
16 | PIM1 (peptide sequence: LIDFGSGALLK, peptide start residue: 184) (UniProt P11309) | -1.33
17 | TEC (peptide sequence: GCLLNFLR, peptide start residue: 448) (UniProt P42680) | -1.96
18 | AKT3 (peptide sequence: ITDFGLCK, peptide start residue: 290) (UniProt Q9Y243) | -0.976
19 | P4HB (peptide sequence: LKAEGSEIR, peptide start residue: 70) (UniProt P07237) | 0.626
20 | ERP29 (peptide sequence: FDTQYPYGEKQDEFKR, peptide start residue: 60) (UniProt P30040) | 0.783
21 | CAPNS1 (peptide sequence: TDGFGIDTCR, peptide start residue: 136) (UniProt P04632) | 0.372
22 | UniProt P48730 (peptide sequence: MMQGGVGIPTIR, peptide start residue: 58) | -0.401
23 | UniProt P06576 (peptide sequence: AAPTAVHPVR, peptide start residue: 35) | 0.808
24 | CAMK2A (peptide sequence: DLKPENLLLASK, peptide start residue: 136) (UniProt Q9UQM7) | -3.45
25 | PIK3R3 (peptide sequence: TAIEAFNETIK, peptide start residue: 479) (UniProt Q92569) | -0.409
26 | MOCS3 (peptide sequence: ILQSLSAAQELDPLTVR, peptide start residue: 424) (UniProt O95396) | -0.411
27 | ISCA2 (peptide sequence: LTDSCVQR, peptide start residue: 52) (UniProt Q86U28) | 0.861
28 | UniProt O95747 (peptide sequence: EVLEGLEYLHK, peptide start residue: 129) | 0.742
29 | UniProt O14733 (peptide sequence: ILMDLDVVLK, peptide start residue: 163) | -0.371

Reference: the supplement of paper PMC12819154, “High-throughput peptide-centric local stability assay extends protein–ligand identification to membrane proteins, tissues and bacteria” (Nature Structural & Molecular Biology, 2025)
